Screen size: about 340,000 compounds; about 6,900 (2%) were called active. Cut-off read from the data, not from the text of the source: active = inhibition above about 30%; inactive = below that, where a call was filed. Only a part is listed here, and it is no random draw. Entries without a call were filed so in the source.

Sequence of UniProt P14416 (P14416 whole entry, looked up): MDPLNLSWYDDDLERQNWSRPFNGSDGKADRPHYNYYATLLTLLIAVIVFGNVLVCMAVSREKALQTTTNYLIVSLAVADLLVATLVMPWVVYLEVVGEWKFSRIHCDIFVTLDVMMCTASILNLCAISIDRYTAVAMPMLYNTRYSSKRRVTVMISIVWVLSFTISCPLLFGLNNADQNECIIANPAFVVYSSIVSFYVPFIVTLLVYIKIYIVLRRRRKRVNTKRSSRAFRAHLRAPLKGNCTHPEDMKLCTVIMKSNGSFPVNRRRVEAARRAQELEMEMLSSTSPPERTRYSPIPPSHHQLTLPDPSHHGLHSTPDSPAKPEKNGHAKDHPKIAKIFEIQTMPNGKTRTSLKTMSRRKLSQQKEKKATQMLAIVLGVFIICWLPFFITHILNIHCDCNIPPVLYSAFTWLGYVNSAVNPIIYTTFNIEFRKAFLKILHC

In the experiment the target is D(2) dopamine receptor (Homo sapiens) (UniProt P14416). As to the kind of experiment: HTS Assay for Allosteric Antagonists of the Human D2 Dopamine Receptor: Primary Screen for Antagonists. Note: 0% is about no effect. The following applies: HEK293 TREx D2 cells, calcium flux, dopamine EC80; at 10 µM; stronger effect = higher value. In outline:
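Calcium flux kinetic readout in an inducible HEK293 TREx D2 line plated overnight at 30 C. After 180 s compound exposure, an EC80 dopamine challenge follows with another 180 s kinetic read to detect antagonism.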
A general note: A change in cytosolic calcium serves as a functional read-out for many receptors and channels.
As usually defined, the inhibition is the change of the read-out against control, counted positive when it falls. Consider `COc1ccc(C(=O)Nc2cc(NC(=O)c3ccco3)ccc2OC)cc1Cl`, for which the inhibition was -1.2%.

On to `CCc1nnc(SCc2nc(-c3cccc(C)c3)oc2C)c2cc3sc(C)cc3n12`, for which the inhibition worked out at 2.59%. The value for `CC(=O)c1ccc(S(=O)(=O)N2CCn3cccc3C2c2ccc(F)c(F)c2)cc1` (stereo not drawn) was -6.45%. The figure for `CCc1cc(C(=O)NCc2ccc(F)cc2)no1` is -25.4%; for `COc1ccc(CNc2ncnc3c2c(-c2ccccc2)cn3-c2cccc(C)c2)cc1` it is -20.9%. For `CC(C)Oc1ccc(CNC(=O)c2ccc3c(c2)N(C)C(=O)C2CCCCN32)cc1` (stereo not drawn), the inhibition was -3.84%.

Regarding `NC(=O)c1nsc(C(=O)N(CCCN2CCOCC2)C(C(=O)NC2CCCCC2)c2ccc(Cl)cc2)c1N` (stereo not drawn), the inhibition is active: 30.5%. The figure for `Cc1ccc(N2CC(NC(=O)C3CCCC3)CC2=O)cc1C` (stereo not drawn) is 5.27%; for `COc1ccc(-c2nnc(SCC(=O)Oc3cc(C)ccc3C)o2)cc1` it is -21.4%.

`CSCCC(NC(=O)OC(C)(C)C)C(=O)Oc1ccc2c(=O)c(-c3ccc4c(c3)OCCO4)coc2c1` (stereo not drawn): the inhibition was active: 32.8%. Take `CCOC(=O)c1cc2c(=O)n3ccccc3nc2n(CC2CCCO2)c1=NC(=O)c1ccc(F)cc1` (stereo not drawn): the inhibition is -1.24%.

In the case of `O=C(NCc1cccc(F)c1)c1ccc2nc(CCc3ccccc3)oc2c1`, the inhibition is 22.8%. The value for `CCOC(=O)N1CCc2c(sc(NCc3cccc(F)c3)c2C(=O)Nc2ccc(OCC)cc2)C1` was 8.59%; that for `CSc1cccc(CN2CCN(CCC(C)C)C(CCO)C2)c1` (stereo not drawn) was active: 58.8%.

For the molecule `CCN(C(=O)c1cccn(Cc2cccc(Cl)c2)c1=O)c1ccccc1`, the inhibition is 17.9%. Consider `Cc1ccc(-c2nc(Cn3c(SCc4ccc(F)cc4)nc4cccnc43)c(C)o2)cc1`, for which the inhibition turned out to be 1.11%. For `COc1ccc(C(=O)Nc2nonc2-c2ccc(OC)c(OC)c2)cc1Cl`, the inhibition was -13.8%.

Take `O=C(Nc1cccc(NC(=O)c2ccc(Br)cc2)c1)c1ccccc1`: the inhibition is -11.5%. The value for `CCCn1c(NCc2ccccc2F)nc2ccccc21` was -4.94%. For `CCCn1c2ccccc2c2cnn(CC(=O)NCCCN3CCN(c4ccccc4)CC3)c(=O)c21`, the inhibition is active: 87.5%. With `COc1ccc2c(c1)CC(NC(=O)Nc1ccc(Br)c(C)c1)CO2` (stereo not drawn), the inhibition was -0.25%. The value for `CCC(=O)N1c2ccc(S(=O)(=O)CCC(=O)N3CCN(c4ccc(F)cc4)CC3)cc2CC1C` (stereo not drawn) was 9.24%; that for `Cc1ccc(OCc2cc(=O)n3cc(C)sc3n2)c(NC(=O)c2ccco2)c1` was 3.98%; that for `O=C(Oc1ccc(Br)cc1)c1cccnc1` was active: 38.5%. The figure for `Cc1ccc(C)c(NC(=O)Cn2cc(S(=O)(=O)NC(C)C)c(S(=O)(=O)NC(C)C)c2)c1` is -1.03%. The figure for `COc1cc(C(=O)Nc2c(C(=O)Nc3ccccc3F)oc3ccccc23)cc(OC)c1OC` is 16%. `CCOc1ccc(NC(=O)c2ccc3nc(C(C)C)oc3c2)cc1`: the inhibition is -11.4%.

As for `CC(C)OCCCn1c(=S)[nH]c2cc3c(cc2c1=O)OCO3`, the inhibition was active: 49.5%. The value for `COc1ccc(Cn2c(C(=O)O)c(CNCc3ccc(C)o3)c3ccc(OC)cc32)cc1` was 7.02%.

For the molecule `CCc1cccc(NC(=O)Cn2nc(C)c3sc4ccccc4c3c2=O)c1`, the inhibition turned out to be 12.9%. The value for `Cc1ccc(C)c(CN2C(=O)CSc3ccc(C(=O)NCc4ccccc4)cc32)c1` was -4.08%. The value for `[S-]C(=Nc1ccc(Cl)cc1)N[n+]1ccccc1` was active: 61.9%; that for `COc1ccccc1OC(C)C(=O)N1CCC(c2nc3ccccc3s2)CC1` (stereo not drawn) was 2.91%. For the molecule `COc1ccc(Cn2c(=O)c3ccccc3n3c(-c4ccc(C)cc4)nnc23)cc1`, the inhibition is 17%. The figure for `Cc1ccc2c(c1)c(=O)c1ccccc1n2CCCC(=O)Nc1ccc(C)c(C)c1` is -4.85%; for `CC(C)OC(=O)c1ccc(NC(=O)CSc2nc(-c3cccs3)cc(C(F)(F)F)n2)cc1` it is -1.11%. Regarding `Cc1ccc(COC(=O)c2[nH]c3c(c2C)C(=O)CC(c2ccc(Cl)cc2)C3)cc1` (stereo not drawn), the inhibition came to 11.5%.

Turning to `Cc1ccc(C(=O)C2CCN(CC(=O)Nc3ccc(N(C)C)cc3)CC2)cc1`, the inhibition is active: 33.4%. The value for `CC(C)CC(=O)n1nc(-c2ccco2)nc1NCc1ccc(Cl)cc1` was -2.08%. The value for `Cc1ccc2onc(CNC(=O)N3CCN(c4cc(Cl)ccc4C)CC3)c2c1` was -3.09%. Take `COc1ccccc1CNC(=O)c1ccc2c(c1)nc(C)n2-c1cccc(C)c1`: the inhibition is 17%. Consider `Cc1ccc(CCNC(=O)c2sc3nc4n(c(=O)c3c2C)CCCC4)cc1`, for which the inhibition is -7.04%. Turning to `COc1ccc(C(C)=O)cc1CSc1nc(NCc2ccccc2)c2ccccc2n1`, the inhibition was -16.3%.

On to `Cc1ccc(C)c(-c2nnc(NC(=O)c3ccco3)o2)c1`, for which the inhibition was active: 40.5%. The value for `COc1ccc(NC(=O)C(C)N2Cc3ccccc3C2=O)cc1OC` (stereo not drawn) was 20.1%; that for `CCOC(=O)c1cc(S(=O)(=O)N2CCN(c3ccccc3OC)CC2)[nH]n1` was 8.12%. Consider `COc1ccc(NC(=O)CSCc2cc(=O)c3cc(Cl)ccc3[nH]2)cc1`, for which the inhibition is -2.46%. For `Cc1ccc(N2CC(NC(=O)C3CCCCC3)CC2=O)cc1` (stereo not drawn), the inhibition came out at 24.3%. For the molecule `CCc1ccc(C(=O)c2cn(CC(=O)Nc3ccc(F)cc3)c3ccc(F)cc3c2=O)cc1`, the inhibition came to 16.1%. As to `CCn1c(CNC(=O)c2ccc(OC)cc2)nnc1SCC(=O)Nc1ccc(F)cc1`, the inhibition is -12.9%. The figure for `CCOc1ccc(C2CC(=O)Nc3c2c(=O)[nH]c2ncnn32)cc1` (stereo not drawn) is 4.53%; for `Cc1cccc(C(=O)Nc2cc(-c3ccccc3F)nn2-c2ccccc2)c1` it is -5.05%; for `COc1cc(NS(=O)(=O)c2cc3[nH]c(=O)[nH]c3cc2C)cc(OC)c1OC` it is 5.66%. As to `COc1ccc(-c2cc(C(=O)Nc3c(C)nn(Cc4ccccc4C)c3C)no2)cc1`, the inhibition is -12.8%. The value for `Cc1cccc(CN2C(=O)c3ccccc3S(=O)(=O)c3ccc(C(=O)OCC4CCCO4)cc32)c1` (stereo not drawn) was 0.405%. The value for `CCc1ccc(CNC(=O)C2COc3ccccc3C2)cc1` (stereo not drawn) was 2.14%; that for `COc1cc(C(=O)NCc2nc(-c3ccc(Cl)cc3)no2)cc(OC)c1OC` was 6.15%; that for `COC(=O)CCNC(=O)N1CCN(c2nnc(C)c3c(C)n(-c4ccccc4)nc23)CC1` was -3.16%.

Turning to `O=C(Cn1c(=O)n(Cc2ccc(F)cc2)c(=O)c2sc3ccccc3c21)Nc1ccc(F)cc1F`, the inhibition is -18.1%. The value for `COc1cccc(CNC(=O)Cn2cccc2C(=O)c2ccccc2)c1` was -3.67%. The value for `O=c1c2ccsc2ncn1Cc1ccc(Cl)cc1` was active: 38%; that for `COc1cccc(-c2nc(CS(=O)(=O)CC(=O)Nc3ccc(C)c(Cl)c3)c(C)o2)c1` was -7.37%; that for `Cc1cccc(NC(=O)c2cc3c([nH]c2=O)CC(c2ccccc2)CC3=O)c1` (stereo not drawn) was -22.8%.

Regarding `CCN1CCc2c(sc(-n3cccc3)c2C(CCC(C)C)NC(=O)NCCC(=O)OC)C1` (stereo not drawn), the inhibition was -7.57%. The figure for `CCc1cccc(C)c1NC(=O)C(NS(=O)(=O)c1ccc2c(c1)CCC(=O)N2)c1ccccc1` (stereo not drawn) is -11.8%; for `Cc1ccc(C)c(N2CCN(C(c3ccccc3)c3nnc(-c4ccccc4)o3)CC2)c1` (stereo not drawn) it is 1.23%; for `CCCn1c2ccccc2c2cnn(CC(=O)NCCCOC(C)C)c(=O)c21` it is 10%. The value for `Cc1ccc(NS(=O)(=O)c2c(C)nc3sc(C)c(C)n3c2=O)cc1F` was -3.84%; that for `CC(C)COc1ccc(C(=O)N(Cc2cccc(F)c2)C2CCS(=O)(=O)C2)cc1` (stereo not drawn) was -13.7%; that for `CCOc1ccc(S(=O)(=O)NCc2cccn2Cc2cccc(C)c2)cc1` was 1.66%. Turning to `CCOC(=O)c1cnc2ccc(OCC)cc2c1NCCc1ccc(OC)c(OC)c1`, the inhibition came to 19%. As to `Cc1cccc(N2CCN(CC(O)COCc3cccs3)CC2)c1C` (stereo not drawn), the inhibition is active: 70.5%.

Turning to `CCCn1c(=N)c(C(=O)NC2CCCCC2)cc2c(=O)n3cc(C)ccc3nc21`, the inhibition came to 4.08%. The figure for `Cc1ccc([N+](=O)[O-])c(OCCCN2CCCCCC2)c1` is active: 70.9%. As for `COc1cc(F)c(C2=CC(=O)C[C@H](c3ccc(Cl)cc3)C2)cc1F`, the inhibition is active: 34.8%. The value for `Cc1ccc2c(C)c(C(=O)N(Cc3ccc(Cl)cc3)C3CCS(=O)(=O)C3)oc2c1` (stereo not drawn) was -2.65%; that for `COc1cc2c(cc1OC)C(COc1ccc3c(C)cc(=O)oc3c1)N(C(=O)c1ccc(Cl)cc1)CC2` (stereo not drawn) was -7.83%; that for `O=C1CN(C(=O)c2ccccc2C(F)(F)F)C(c2ccccc2)c2cc(F)ccc2N1` (stereo not drawn) was -12.1%.

As for `CCCNc1c(NC(=O)c2ccc(OCCC)cc2)c(=O)oc2ccccc12`, the inhibition is -4.98%. Take `O=C1[C@@H]2CSC(c3ccc(C(F)(F)F)cc3)N2C(=O)N1c1ccccc1` (stereo partly drawn): the inhibition was found to be 8.93%. The figure for `O=C(CSCc1ccccc1Cl)NN=C1CCCCCC1` is active: 38.4%; for `CCN(CC)C(=O)Cn1c(=O)n(Cc2ccc(C(=O)NCc3ccccc3Cl)cc2)c(=O)c2ccccc21` it is 11.5%.

As for `O=C(CSc1nccn1-c1ccc(F)cc1)Nc1ccc(OC(F)(F)F)cc1`, the inhibition is -4.35%. The value for `COc1cc(C2C(=O)N(C3CCCCC3)CC(=O)N2Cc2ccc(C)cc2)ccc1OC(C)C` (stereo not drawn) was 24.2%. The figure for `CCOC(=O)c1c(-c2ccc(Br)cc2)csc1NC(=O)c1ccccc1F` is 8.19%; for `COc1cc(NC(=O)N2CCC(CN3CCCC3)CC2)cc(OC)c1OC` it is -2.82%. The value for `CN(C)c1ccc(C(CNS(=O)(=O)c2ccccc2)N2CCc3ccccc32)cc1` (stereo not drawn) was 9.09%. As to `COc1cc(C(=O)NCC(c2cccnc2)N2CCc3ccccc32)cc(OC)c1OC` (stereo not drawn), the inhibition is -26%. `Cc1ccc(S(=O)(=O)N(C)C)cc1NC(=O)CSc1ccc2c(c1)OCCO2`: the inhibition was active: 36.3%. The figure for `Cc1ccccc1Cn1c(=O)n(Cc2ccc(Cl)cc2)c(=O)c2cccnc21` is -5%; for `COc1ccc(OC)c(NC(=O)CSC2=Nc3ccccc3C3=NC(CC(=O)NCc4ccc5c(c4)OCO5)C(=O)N23)c1` (stereo not drawn) it is -26.7%; for `COc1cc(Cl)c(C)cc1NC(=O)c1sc2nc3n(c(=O)c2c1C)CCCCC3` it is 13.8%.

In the case of `CCOC(=O)c1c(NC(=O)c2nc(SC(C)C)ncc2Cl)sc2c1CCCC2`, the inhibition is 20.8%. On to `Cc1nc(NCc2ccco2)[nH]c(=O)c1CCC(C)C`, for which the inhibition is active: 30.3%. For the molecule `Cn1c(SCc2ccc(C(F)(F)F)cc2)nc2c([nH]c3ccccc32)c1=O`, the inhibition was -3.29%. Take `O=c1cc(N2CCN(c3ccc(F)cc3)CC2)[nH]c(=O)n1-c1ccc(Br)cc1`: the inhibition was 7.52%. `c1ccc2c(c1)CCN(CCCNc1nc3ccccc3n3cnnc13)C2`: the inhibition was active: 69.9%. On to `CCCCN1C(=O)CN(C2CCCCCC2)C(=O)C1c1ccc(OCCC)c(OC)c1` (stereo not drawn), for which the inhibition stood at 15.2%.

The record behind these values is PubChem BioAssay AID485344 (National Center for Advancing Translational Sciences (NCATS), 2010).
